{
  "source": "the supplement of paper PMC8728848",
  "binders": {"B1": {"name": "SSP1 (Sclerotinia sclerotiorum), XP_001584968 (protein)", "chain": "MGSSHHHHHHSSGLVPRGSHMSLLTTELACTSAPDQVLHLFFQDGQNILEARSPDGGNVWTTQDTIIAKDGDYNGSSMTCYYVDKDANFDNQPSIHLLYMNKDKQLTEKVKRMKGDNPIWEDAKVPDEVRKGPEQYSKLTSGSFNQGTGWNPNGSQWAYFSASKDGKMGIVEIRRTPKDPWHTETILEEKWGDELPGTALACVIGNGKIRVFLQHHDYSIILYENQNNTWHDRGTFIPKDKVQATTPLACTMTKDGSVHLFYVSKSNKIIHCTDGKKEEELINFFPGSKLGATSVENKITLFFRNLNPVNEVGTLENENGSWKHGTTVIPA"}},
  "experiment_in_all_cases": "glycan array binding signal (z-score within array); higher = stronger binding",
  "conditions_in_all_cases": "glycan notation: IUPAC condensed, linker removed",
  "key": {"[1]": {"biological_target": "Gal3S(b1-3)[Fuc(a1-4)]GlcNAc", "in_short": "(§1)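 The Consortium for Functional Glycomics database supplied 3228 glycan arrays, of which those lacking an available protein sequence were dropped. The binding signal, a within-array Z-score, was averaged across arrays of the same protein sequence and across linkers. Negative scores can be read as non-binding.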"}, "Gal3S(b1-4)Glc": {"biological_target": "Gal3S(b1-4)Glc", "in_short": "as §1"}, "Gal3S(b1-4)Glc6S": {"biological_target": "Gal3S(b1-4)Glc6S", "in_short": "as §1"}, "Gal3S(b1-4)GlcNAc": {"biological_target": "Gal3S(b1-4)GlcNAc", "in_short": "as §1"}, "[2]": {"biological_target": "Gal3S(b1-4)[Fuc(a1-3)]Glc6S", "in_short": "as §1"}, "[3]": {"biological_target": "Gal3S(b1-4)[Fuc(a1-3)]GlcNAc", "in_short": "as §1"}, "[4]": {"biological_target": "Gal3S(b1-4)[Fuc(a1-3)]GlcNAc6S", "in_short": "as §1"}, "Gal3S4S(b1-4)GlcNAc": {"biological_target": "Gal3S4S(b1-4)GlcNAc", "in_short": "as §1"}, "Gal3S6S(b1-4)GlcNAc": {"biological_target": "Gal3S6S(b1-4)GlcNAc", "in_short": "as §1"}, "Gal3S6S(b1-4)GlcNAc6S": {"biological_target": "Gal3S6S(b1-4)GlcNAc6S", "in_short": "as §1"}, "Gal4S(b1-4)GlcNAc": {"biological_target": "Gal4S(b1-4)GlcNAc", "in_short": "as §1"}, "Gal4S6S(b1-4)GlcNAc": {"biological_target": "Gal4S6S(b1-4)GlcNAc", "in_short": "as §1"}, "Gal6P(b1-4)GlcNAc": {"biological_target": "Gal6P(b1-4)GlcNAc", "in_short": "as §1"}, "Gal6S(b1-3)GlcNAc": {"biological_target": "Gal6S(b1-3)GlcNAc", "in_short": "as §1"}, "Gal6S(b1-3)GlcNAc6S": {"biological_target": "Gal6S(b1-3)GlcNAc6S", "in_short": "as §1"}, "Gal6S(b1-4)Glc": {"biological_target": "Gal6S(b1-4)Glc", "in_short": "as §1"}, "Gal6S(b1-4)Glc6S": {"biological_target": "Gal6S(b1-4)Glc6S", "in_short": "as §1"}, "Gal6S(b1-4)GlcNAc": {"biological_target": "Gal6S(b1-4)GlcNAc", "in_short": "as §1"}, "Gal6S(b1-4)GlcNAc6S": {"biological_target": "Gal6S(b1-4)GlcNAc6S", "in_short": "as §1"}, "GalNAc(a1-3)Gal": {"biological_target": "GalNAc(a1-3)Gal", "in_short": "as §1"}, "GalNAc(a1-3)GalNAc": {"biological_target": "GalNAc(a1-3)GalNAc", "in_short": "as §1"}, "[5]": {"biological_target": "GalNAc(a1-3)GalNAc(b1-3)Gal(a1-4)Gal(b1-4)Glc", "in_short": "as §1"}, "[6]": {"biological_target": "GalNAc(a1-3)GalNAc(b1-3)Gal(a1-4)Gal(b1-4)GlcNAc", "in_short": "as §1"}, "GalNAc(b1-3)Gal": {"biological_target": "GalNAc(b1-3)Gal", "in_short": "as §1"}, "[7]": {"biological_target": "GalNAc(b1-3)Gal(a1-4)Gal(b1-4)GlcNAc", "in_short": "as §1"}, "[8]": {"biological_target": "GalNAc(b1-3)Gal(a1-4)Gal(b1-4)GlcNAc(b1-3)Gal(b1-4)Glc", "in_short": "as §1"}, "[9]": {"biological_target": "GalNAc(b1-3)Gal(a1-6)Gal(b1-4)Glc", "in_short": "as §1"}, "GalNAc(b1-3)GalNAc": {"biological_target": "GalNAc(b1-3)GalNAc", "in_short": "as §1"}, "GalNAc(b1-3)GlcNAc": {"biological_target": "GalNAc(b1-3)GlcNAc", "in_short": "as §1"}, "GalNAc(b1-4)Gal(b1-4)Glc": {"biological_target": "GalNAc(b1-4)Gal(b1-4)Glc", "in_short": "as §1"}, "GalNAc(b1-4)GlcNAc": {"biological_target": "GalNAc(b1-4)GlcNAc", "in_short": "as §1"}, "[10]": {"biological_target": "GalNAc(b1-4)GlcNAc(b1-2)Man", "in_short": "as §1"}, "[11]": {"biological_target": "GalNAc(b1-4)GlcNAc(b1-2)Man(a1-3)[GalNAc(b1-4)GlcNAc(b1-2)Man(a1-6)]Man(b1-4)GlcNAc(b1-4)GlcNAc", "in_short": "as §1"}, "[12]": {"biological_target": "GalNAc(b1-4)GlcNAc(b1-3)GalNAc(b1-4)GlcNAc", "in_short": "as §1"}, "GalNAc(b1-4)GlcNAc6S": {"biological_target": "GalNAc(b1-4)GlcNAc6S", "in_short": "as §1"}, "GalNAc(b1-6)GalNAc": {"biological_target": "GalNAc(b1-6)GalNAc", "in_short": "as §1"}, "GalNAc3S(b1-4)GlcNAc": {"biological_target": "GalNAc3S(b1-4)GlcNAc", "in_short": "as §1"}},
  "note": "The other results are listed elsewhere or left out.",
  "data": [
    {"binder": "B1", "values": [
      {"measurement": "glycan array binding signal (z-score)", "setting": "[1]", "result": -0.396},
      {"measurement": "glycan array binding signal (z-score)", "setting": "Gal3S(b1-4)Glc", "result": 1.38},
      {"measurement": "glycan array binding signal (z-score)", "setting": "Gal3S(b1-4)Glc6S", "result": 0.318},
      {"measurement": "glycan array binding signal (z-score)", "setting": "Gal3S(b1-4)GlcNAc", "result": 0.243},
      {"measurement": "glycan array binding signal (z-score)", "setting": "[2]", "result": 0.27},
      {"measurement": "glycan array binding signal (z-score)", "setting": "[3]", "result": 0.403},
      {"measurement": "glycan array binding signal (z-score)", "setting": "[4]", "result": 0.615},
      {"measurement": "glycan array binding signal (z-score)", "setting": "Gal3S4S(b1-4)GlcNAc", "result": -0.405},
      {"measurement": "glycan array binding signal (z-score)", "setting": "Gal3S6S(b1-4)GlcNAc", "result": -0.017},
      {"measurement": "glycan array binding signal (z-score)", "setting": "Gal3S6S(b1-4)GlcNAc6S", "result": -0.049},
      {"measurement": "glycan array binding signal (z-score)", "setting": "Gal4S(b1-4)GlcNAc", "result": -0.478},
      {"measurement": "glycan array binding signal (z-score)", "setting": "Gal4S6S(b1-4)GlcNAc", "result": -0.291},
      {"measurement": "glycan array binding signal (z-score)", "setting": "Gal6P(b1-4)GlcNAc", "result": -0.025},
      {"measurement": "glycan array binding signal (z-score)", "setting": "Gal6S(b1-3)GlcNAc", "result": -0.223},
      {"measurement": "glycan array binding signal (z-score)", "setting": "Gal6S(b1-3)GlcNAc6S", "result": -0.222},
      {"measurement": "glycan array binding signal (z-score)", "setting": "Gal6S(b1-4)Glc", "result": 0.043},
      {"measurement": "glycan array binding signal (z-score)", "setting": "Gal6S(b1-4)Glc6S", "result": 0.367},
      {"measurement": "glycan array binding signal (z-score)", "setting": "Gal6S(b1-4)GlcNAc", "result": -0.097},
      {"measurement": "glycan array binding signal (z-score)", "setting": "Gal6S(b1-4)GlcNAc6S", "result": -0.103},
      {"measurement": "glycan array binding signal (z-score)", "setting": "GalNAc(a1-3)Gal", "result": 0.422},
      {"measurement": "glycan array binding signal (z-score)", "setting": "GalNAc(a1-3)GalNAc", "result": -0.456},
      {"measurement": "glycan array binding signal (z-score)", "setting": "[5]", "result": -0.179},
      {"measurement": "glycan array binding signal (z-score)", "setting": "[6]", "result": -0.19},
      {"measurement": "glycan array binding signal (z-score)", "setting": "GalNAc(b1-3)Gal", "result": 2.2},
      {"measurement": "glycan array binding signal (z-score)", "setting": "[7]", "result": -0.233},
      {"measurement": "glycan array binding signal (z-score)", "setting": "[8]", "result": 0.205},
      {"measurement": "glycan array binding signal (z-score)", "setting": "[9]", "result": -0.58},
      {"measurement": "glycan array binding signal (z-score)", "setting": "GalNAc(b1-3)GalNAc", "result": -0.368},
      {"measurement": "glycan array binding signal (z-score)", "setting": "GalNAc(b1-3)GlcNAc", "result": 0.44},
      {"measurement": "glycan array binding signal (z-score)", "setting": "GalNAc(b1-4)Gal(b1-4)Glc", "result": -0.27},
      {"measurement": "glycan array binding signal (z-score)", "setting": "GalNAc(b1-4)GlcNAc", "result": -0.197},
      {"measurement": "glycan array binding signal (z-score)", "setting": "[10]", "result": 0.345},
      {"measurement": "glycan array binding signal (z-score)", "setting": "[11]", "result": 0.185},
      {"measurement": "glycan array binding signal (z-score)", "setting": "[12]", "result": 0.184},
      {"measurement": "glycan array binding signal (z-score)", "setting": "GalNAc(b1-4)GlcNAc6S", "result": -0.132},
      {"measurement": "glycan array binding signal (z-score)", "setting": "GalNAc(b1-6)GalNAc", "result": -0.286},
      {"measurement": "glycan array binding signal (z-score)", "setting": "GalNAc3S(b1-4)GlcNAc", "result": -0.311}
    ]}
  ]
}
